Results reported in the supplement of paper PMC12230231.
± gives the standard deviation of the averaged measurements. Restriction of a single-cycle SIVsab GFP reporter by TRIM5α v1-loop variants in CRFK cells. Human variants: read share among cells still uninfected after two challenges over input, higher = gained restriction. Rhesus variants: share among infected cells over input, higher = lost restriction. Reporter dose not given per row. No active / inactive call per row; the paper calls a change when both replicates lie above its controls (mean + 2 SD of stop or wild-type variants, or the top frameshift score). Residues outside the varied loop are taken from Swiss-Prot. The paper reads the human single-substitution scores as noise; they and the rhesus combinations repeat poorly (rank correlation 0.3 to 0.4), indel scores repeat only for the top variants, rhesus substitutions well (0.9).

Test system: SIVsab (simian immunodeficiency virus of sabaeus monkeys), single-cycle GFP reporter, in CRFK cells
Test: enrichment among infected cells over input (fold); higher = weaker restriction
Conditions: library: human / rhesus combinations
Procedure: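 Pools of CRFK cells expressing variants of the TRIM5α v1 loop were challenged with the single-cycle reporter, sorted by GFP and sequenced; mean of two replicates.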

Sequence	enrichment
MASGILLNVKEEVTCPICLELLTEPLSLHCGHSFCQACITANHKKSMLYKEGERSCPVCRISYQPENIQPNRHVANIVEKLREVKLSPEEGQKVDHCARHGEKLLLFCQEDSKVICWLCERSQEHRGHHTFLMEEVAQEYHVKLQTALEMLRQKQQEAEKLEADIREEKASWKIQIDYDKTNVSADFEQLREILDWEESNELQNLEKEEEDILKSLTKSETEMVQQTQYMRELISELEHRLQGSMMDLLQGVDGIIKRIENMTLKKPKTFHKNQRRVFRAPDLKGMLDMFRELTDARRYWVDVTLAPNNISHAVIAEDKRQVSSRNPQIMYGARGTRFTFPTLTNFNYCTGVLGSQSITSGKHYWEVDVSKKSAWILGVCAGFQSDAMYNIEQNENYQPKYGYWVIGLQEGVKYSVFQDGSSHTPFAPFIVPLSVIICPDRVGVFVDYEACTVSFFNITNHGFLIYKFSQCSFSKPVFPYLNPRKCTVPMTLCSPSS [rhesus TRIM5α, 332-344 = GARGTRFTFPTLT]	1.58 ± 0.32
MASGILLNVKEEVTCPICLELLTEPLSLHCGHSFCQACITANHKKSMLYKEGERSCPVCRISYQPENIQPNRHVANIVEKLREVKLSPEEGQKVDHCARHGEKLLLFCQEDSKVICWLCERSQEHRGHHTFLMEEVAQEYHVKLQTALEMLRQKQQEAEKLEADIREEKASWKIQIDYDKTNVSADFEQLREILDWEESNELQNLEKEEEDILKSLTKSETEMVQQTQYMRELISELEHRLQGSMMDLLQGVDGIIKRIENMTLKKPKTFHKNQRRVFRAPDLKGMLDMFRELTDARRYWVDVTLAPNNISHAVIAEDKRQVSSRNPQIMYGARGTRYTFPSLTNFNYCTGVLGSQSITSGKHYWEVDVSKKSAWILGVCAGFQSDAMYNIEQNENYQPKYGYWVIGLQEGVKYSVFQDGSSHTPFAPFIVPLSVIICPDRVGVFVDYEACTVSFFNITNHGFLIYKFSQCSFSKPVFPYLNPRKCTVPMTLCSPSS [rhesus TRIM5α, 332-344 = GARGTRYTFPSLT]	1.43 ± 1
MASGILLNVKEEVTCPICLELLTEPLSLHCGHSFCQACITANHKKSMLYKEGERSCPVCRISYQPENIQPNRHVANIVEKLREVKLSPEEGQKVDHCARHGEKLLLFCQEDSKVICWLCERSQEHRGHHTFLMEEVAQEYHVKLQTALEMLRQKQQEAEKLEADIREEKASWKIQIDYDKTNVSADFEQLREILDWEESNELQNLEKEEEDILKSLTKSETEMVQQTQYMRELISELEHRLQGSMMDLLQGVDGIIKRIENMTLKKPKTFHKNQRRVFRAPDLKGMLDMFRELTDARRYWVDVTLAPNNISHAVIAEDKRQVSSRNPQIMYGAPGTLFQTFTNFNYCTGVLGSQSITSGKHYWEVDVSKKSAWILGVCAGFQSDAMYNIEQNENYQPKYGYWVIGLQEGVKYSVFQDGSSHTPFAPFIVPLSVIICPDRVGVFVDYEACTVSFFNITNHGFLIYKFSQCSFSKPVFPYLNPRKCTVPMTLCSPSS [rhesus TRIM5α, 332-344 = GAPGTLFQTFT]	0.242 ± 0.34
MASGILLNVKEEVTCPICLELLTEPLSLHCGHSFCQACITANHKKSMLYKEGERSCPVCRISYQPENIQPNRHVANIVEKLREVKLSPEEGQKVDHCARHGEKLLLFCQEDSKVICWLCERSQEHRGHHTFLMEEVAQEYHVKLQTALEMLRQKQQEAEKLEADIREEKASWKIQIDYDKTNVSADFEQLREILDWEESNELQNLEKEEEDILKSLTKSETEMVQQTQYMRELISELEHRLQGSMMDLLQGVDGIIKRIENMTLKKPKTFHKNQRRVFRAPDLKGMLDMFRELTDARRYWVDVTLAPNNISHAVIAEDKRQVSSRNPQIMYGAPGTRFPTLTNFNYCTGVLGSQSITSGKHYWEVDVSKKSAWILGVCAGFQSDAMYNIEQNENYQPKYGYWVIGLQEGVKYSVFQDGSSHTPFAPFIVPLSVIICPDRVGVFVDYEACTVSFFNITNHGFLIYKFSQCSFSKPVFPYLNPRKCTVPMTLCSPSS [rhesus TRIM5α, 332-344 = GAPGTRFPTLT]	0.644 ± 0.08
MASGILLNVKEEVTCPICLELLTEPLSLHCGHSFCQACITANHKKSMLYKEGERSCPVCRISYQPENIQPNRHVANIVEKLREVKLSPEEGQKVDHCARHGEKLLLFCQEDSKVICWLCERSQEHRGHHTFLMEEVAQEYHVKLQTALEMLRQKQQEAEKLEADIREEKASWKIQIDYDKTNVSADFEQLREILDWEESNELQNLEKEEEDILKSLTKSETEMVQQTQYMRELISELEHRLQGSMMDLLQGVDGIIKRIENMTLKKPKTFHKNQRRVFRAPDLKGMLDMFRELTDARRYWVDVTLAPNNISHAVIAEDKRQVSSRNPQIMYQAPGTRFQSFVNFNYCTGVLGSQSITSGKHYWEVDVSKKSAWILGVCAGFQSDAMYNIEQNENYQPKYGYWVIGLQEGVKYSVFQDGSSHTPFAPFIVPLSVIICPDRVGVFVDYEACTVSFFNITNHGFLIYKFSQCSFSKPVFPYLNPRKCTVPMTLCSPSS [rhesus TRIM5α, 332-344 = QAPGTRFQSFV]	0.481 ± 0.39
MASGILLNVKEEVTCPICLELLTEPLSLHCGHSFCQACITANHKKSMLYKEGERSCPVCRISYQPENIQPNRHVANIVEKLREVKLSPEEGQKVDHCARHGEKLLLFCQEDSKVICWLCERSQEHRGHHTFLMEEVAQEYHVKLQTALEMLRQKQQEAEKLEADIREEKASWKIQIDYDKTNVSADFEQLREILDWEESNELQNLEKEEEDILKSLTKSETEMVQQTQYMRELISELEHRLQGSMMDLLQGVDGIIKRIENMTLKKPKTFHKNQRRVFRAPDLKGMLDMFRELTDARRYWVDVTLAPNNISHAVIAEDKRQVSSRNPQIMYGARGTLYQSLTNFNYCTGVLGSQSITSGKHYWEVDVSKKSAWILGVCAGFQSDAMYNIEQNENYQPKYGYWVIGLQEGVKYSVFQDGSSHTPFAPFIVPLSVIICPDRVGVFVDYEACTVSFFNITNHGFLIYKFSQCSFSKPVFPYLNPRKCTVPMTLCSPSS [rhesus TRIM5α, 332-344 = GARGTLYQSLT]	0.563 ± 0.18
MASGILLNVKEEVTCPICLELLTEPLSLHCGHSFCQACITANHKKSMLYKEGERSCPVCRISYQPENIQPNRHVANIVEKLREVKLSPEEGQKVDHCARHGEKLLLFCQEDSKVICWLCERSQEHRGHHTFLMEEVAQEYHVKLQTALEMLRQKQQEAEKLEADIREEKASWKIQIDYDKTNVSADFEQLREILDWEESNELQNLEKEEEDILKSLTKSETEMVQQTQYMRELISELEHRLQGSMMDLLQGVDGIIKRIENMTLKKPKTFHKNQRRVFRAPDLKGMLDMFRELTDARRYWVDVTLAPNNISHAVIAEDKRQVSSRNPQIMYQARGTRYTFPSFTNFNYCTGVLGSQSITSGKHYWEVDVSKKSAWILGVCAGFQSDAMYNIEQNENYQPKYGYWVIGLQEGVKYSVFQDGSSHTPFAPFIVPLSVIICPDRVGVFVDYEACTVSFFNITNHGFLIYKFSQCSFSKPVFPYLNPRKCTVPMTLCSPSS [rhesus TRIM5α, 332-344 = QARGTRYTFPSFT]	1.21 ± 0.57
MASGILLNVKEEVTCPICLELLTEPLSLHCGHSFCQACITANHKKSMLYKEGERSCPVCRISYQPENIQPNRHVANIVEKLREVKLSPEEGQKVDHCARHGEKLLLFCQEDSKVICWLCERSQEHRGHHTFLMEEVAQEYHVKLQTALEMLRQKQQEAEKLEADIREEKASWKIQIDYDKTNVSADFEQLREILDWEESNELQNLEKEEEDILKSLTKSETEMVQQTQYMRELISELEHRLQGSMMDLLQGVDGIIKRIENMTLKKPKTFHKNQRRVFRAPDLKGMLDMFRELTDARRYWVDVTLAPNNISHAVIAEDKRQVSSRNPQIMYQARGTLFTFQTLTNFNYCTGVLGSQSITSGKHYWEVDVSKKSAWILGVCAGFQSDAMYNIEQNENYQPKYGYWVIGLQEGVKYSVFQDGSSHTPFAPFIVPLSVIICPDRVGVFVDYEACTVSFFNITNHGFLIYKFSQCSFSKPVFPYLNPRKCTVPMTLCSPSS [rhesus TRIM5α, 332-344 = QARGTLFTFQTLT]	1.31 ± 0.7
MASGILLNVKEEVTCPICLELLTEPLSLHCGHSFCQACITANHKKSMLYKEGERSCPVCRISYQPENIQPNRHVANIVEKLREVKLSPEEGQKVDHCARHGEKLLLFCQEDSKVICWLCERSQEHRGHHTFLMEEVAQEYHVKLQTALEMLRQKQQEAEKLEADIREEKASWKIQIDYDKTNVSADFEQLREILDWEESNELQNLEKEEEDILKSLTKSETEMVQQTQYMRELISELEHRLQGSMMDLLQGVDGIIKRIENMTLKKPKTFHKNQRRVFRAPDLKGMLDMFRELTDARRYWVDVTLAPNNISHAVIAEDKRQVSSRNPQIMYQARGTRFTFQSLTNFNYCTGVLGSQSITSGKHYWEVDVSKKSAWILGVCAGFQSDAMYNIEQNENYQPKYGYWVIGLQEGVKYSVFQDGSSHTPFAPFIVPLSVIICPDRVGVFVDYEACTVSFFNITNHGFLIYKFSQCSFSKPVFPYLNPRKCTVPMTLCSPSS [rhesus TRIM5α, 332-344 = QARGTRFTFQSLT]	1.11 ± 0.38
MASGILLNVKEEVTCPICLELLTEPLSLHCGHSFCQACITANHKKSMLYKEGERSCPVCRISYQPENIQPNRHVANIVEKLREVKLSPEEGQKVDHCARHGEKLLLFCQEDSKVICWLCERSQEHRGHHTFLMEEVAQEYHVKLQTALEMLRQKQQEAEKLEADIREEKASWKIQIDYDKTNVSADFEQLREILDWEESNELQNLEKEEEDILKSLTKSETEMVQQTQYMRELISELEHRLQGSMMDLLQGVDGIIKRIENMTLKKPKTFHKNQRRVFRAPDLKGMLDMFRELTDARRYWVDVTLAPNNISHAVIAEDKRQVSSRNPQIMYGARGTRYPSLTNFNYCTGVLGSQSITSGKHYWEVDVSKKSAWILGVCAGFQSDAMYNIEQNENYQPKYGYWVIGLQEGVKYSVFQDGSSHTPFAPFIVPLSVIICPDRVGVFVDYEACTVSFFNITNHGFLIYKFSQCSFSKPVFPYLNPRKCTVPMTLCSPSS [rhesus TRIM5α, 332-344 = GARGTRYPSLT]	1.81 ± 1.4
MASGILLNVKEEVTCPICLELLTEPLSLHCGHSFCQACITANHKKSMLYKEGERSCPVCRISYQPENIQPNRHVANIVEKLREVKLSPEEGQKVDHCARHGEKLLLFCQEDSKVICWLCERSQEHRGHHTFLMEEVAQEYHVKLQTALEMLRQKQQEAEKLEADIREEKASWKIQIDYDKTNVSADFEQLREILDWEESNELQNLEKEEEDILKSLTKSETEMVQQTQYMRELISELEHRLQGSMMDLLQGVDGIIKRIENMTLKKPKTFHKNQRRVFRAPDLKGMLDMFRELTDARRYWVDVTLAPNNISHAVIAEDKRQVSSRNPQIMYGARGTLFTFQSLVNFNYCTGVLGSQSITSGKHYWEVDVSKKSAWILGVCAGFQSDAMYNIEQNENYQPKYGYWVIGLQEGVKYSVFQDGSSHTPFAPFIVPLSVIICPDRVGVFVDYEACTVSFFNITNHGFLIYKFSQCSFSKPVFPYLNPRKCTVPMTLCSPSS [rhesus TRIM5α, 332-344 = GARGTLFTFQSLV]	1.04 ± 0.42
MASGILLNVKEEVTCPICLELLTEPLSLHCGHSFCQACITANHKKSMLYKEGERSCPVCRISYQPENIQPNRHVANIVEKLREVKLSPEEGQKVDHCARHGEKLLLFCQEDSKVICWLCERSQEHRGHHTFLMEEVAQEYHVKLQTALEMLRQKQQEAEKLEADIREEKASWKIQIDYDKTNVSADFEQLREILDWEESNELQNLEKEEEDILKSLTKSETEMVQQTQYMRELISELEHRLQGSMMDLLQGVDGIIKRIENMTLKKPKTFHKNQRRVFRAPDLKGMLDMFRELTDARRYWVDVTLAPNNISHAVIAEDKRQVSSRNPQIMYGARGTRFTFPTLVNFNYCTGVLGSQSITSGKHYWEVDVSKKSAWILGVCAGFQSDAMYNIEQNENYQPKYGYWVIGLQEGVKYSVFQDGSSHTPFAPFIVPLSVIICPDRVGVFVDYEACTVSFFNITNHGFLIYKFSQCSFSKPVFPYLNPRKCTVPMTLCSPSS [rhesus TRIM5α, 332-344 = GARGTRFTFPTLV]	1.377 ± 0.013
